This note sets out measurements from paper PMC4833300, “Identification of Trypanocidal Activity for Known Clinical Compounds Using a New Trypanosoma cruzi Hit-Discovery Screening Cascade” (PLoS Neglected Tropical Diseases, 2016).

One assay deals with Vero cells. As to the kind of experiment: Host cell toxicity read-out of the primary assay (Vero cell count). Type of assay: cell-based. The note with it: for EC50: Chlorocebus sabaeus, Vero, read-out: pEC50 (Vero) (converted). Here is the method:
(§1) The compounds tested were obtained from the NIH (Clinical Collection) and from SelleckChem (FDA-approved drug library). Compounds were dispensed into black 384-well assay plates (Corning) by acoustic dispensing (LabCyte ECHO). […] Potencies are reported as pEC50 (-LOG(EC50[M])).
(§2) For the primary intracellular assay the infection conditions were chosen so that no trypomastigote egress occurs during the compound incubation time. First, Vero cells were infected overnight with tissue culture derived T. cruzi trypomastigotes in T225 tissue culture flasks (MOI 5). Next, any remaining free trypomastigotes were washed away with serum free MEM and the infected Vero cells were harvested by trypsinisation. The infected Vero cells were then plated into 384-well plates containing the compounds to be tested, at 4000 cells per well in MEM media with 1% FCS. […] The plates were imaged on a Perkin Elmer Operetta high-content imaging system using a 20x objective. Images were analysed using the Columbus system (Perkin Elmer). The algorithm for the primary assay first identified the Vero nuclei followed by demarcation of the cytoplasm and identification of intracellular amastigotes. This algorithm reported mean number of parasites per Vero cell and total number of Vero cells. Data analysis was as described in [22]. […] Hits from the primary screen were selected based on the following criteria: T. cruzi activity (percent inhibition) > (median T. cruzi percent inhibition + 3 x robust Standard Deviation) and Vero activity (percent inhibition) < (median percent Vero inhibition + 3 x robust Standard Deviation).

Assay [1] has as its system intracellular T. cruzi amastigotes. As to the kind of experiment: Primary high-content intracellular T. cruzi amastigote assay. Type of assay: cell-based, Trypanosoma cruzi (Silvio X10/7 A1) in Vero cells. The note with it: for EC50: Trypanosoma cruzi, read-out: pEC50 (cruzi) (converted). Here is the method: as §1, §2
Another assay has as its system intracellular T. cruzi. As to the kind of experiment: Static-cidal assay (percent infected Vero cells, 96 h). Type of assay: cell-based, Trypanosoma cruzi (Silvio X10/7 A1) in Vero cells. To be noted: Trypanosoma cruzi, 0% = starting level of infection, 100% = 50μM Nifurtimox at 96h, only from concentrations not toxic to the host cells, read-out: MAX PI (SC), Maximum Percent Inhibition in the static cidal assay. Here is the method: The secondary static-cidal assay uses the same protocol as the standard assay with the following changes: infection is done at MOI 10, and infected Vero cells are incubated 88h at 37°C in presence of 5% CO2 prior to trypsinisation and plating. Four hours after plating a control plate (no compounds) was fixed with formaldehyde as described above. Compound containing plates were fixed after incubation for 96 hours. Compounds are run as ten point dose response curves in triplicate. The algorithm for the secondary assay was similar to the primary assay but reported percent infected Vero cells instead of the mean number of parasites.
To assess screening hits for their ability to be cytocidal rather than cytostatic or growth slowing we developed a medium throughput (400 compounds / batch) assay to predict cidality of compounds against intracellular T. cruzi. […] Instead we developed an algorithm that assesses whether a Vero cell is infected or not, and we used the percentage of infected cells as primary measurement for the static-cidal assay. In order to readily identify cidal compounds we normalised the raw data using the starting level of infection as 0% effect and the final level of infection in presence of 50μM Nifurtimox as 100% effect control.

[2] abbreviates: hits of the bio-actives screen, 10-point dose-response, top concentration 50μM, 72h.

Read-outs that look alike come from different tables or passages of the source.

On to `Clc1ccc(COC(Cn2ccnc2)c2ccc(Cl)cc2Cl)c(Cl)c1` (stereo not shown) [Miconazole], for which the values for the EC50 (in the assay with Vero cells (setting [2]); in assay [1] (setting [2])) were 7.94 µM and 0.0316 µM, respectively.

For the compound `Clc1ccccc1C(c1ccccc1)(c1ccccc1)n1ccnc1` [Clotrimazole], the figures for the EC50 (in the assay on Vero cells (setting [2]); in assay [1] (setting [2])) were 12.6 µM and 0.00631 µM, respectively.

Regarding `O=C1CCc2ccc(OCCCCN3CCN(c4cccc(Cl)c4Cl)CC3)cc2N1` [Aripiprazole], the EC50 in the assay with Vero cells (setting [2]) was 12.6 µM; in assay [1] (setting [2]), 2.51 µM. `CN1CCC[C@@H]1CCO[C@](C)(c1ccccc1)c1ccc(Cl)cc1` [Clemastine]: the Emax in the assay with intracellular T. cruzi is 108%. Further, the EC50 with Vero cells (setting [2]) was 25.1 µM; in assay [1] (setting [2]), 0.1 µM.

Turning to `CSc1ccc2c(c1)N(CCC1CCCCN1C)c1ccccc1S2` (stereo not shown) [Thioridazine], the figures for the EC50 (in the assay on Vero cells (setting [2]); in assay [1] (setting [2])) were 6.31 µM and 2.51 µM, respectively. Consider `OCCN1CCN(CCCN2c3ccccc3Sc3ccc(C(F)(F)F)cc32)CC1` [Fluphenazine], for which the EC50 in assay [1] (setting [2]) was 3.16 µM. On to `CNCCC(Oc1ccc(C(F)(F)F)cc1)c1ccccc1` (stereo not shown) [Fluoxetine], for which the EC50 was 20 µM in the assay on Vero cells (setting [2]) and 6.31 µM in assay [1] (setting [2]). Taken in the same sequence, the figures for `Clc1ccc(COC(Cn2ccnc2)c2ccc(Cl)cc2Cl)cc1` (stereo not shown) [Econazole] were 10 µM and 0.02 µM. Turning to `CN(C)C(=O)C(CCN1CCC(O)(c2ccc(Cl)cc2)CC1)(c1ccccc1)c1ccccc1` [Loperamide], the EC50 in assay [1] (72 h) was 3.98 µM. As to `CNCCCC12CCC(c3ccccc31)c1ccccc12` [Maprotilline], the “pEC50 (Vero)” value in the assay with Vero cells (setting [2]) was 4.8. Besides, in assay [1] (setting [2]), the “pEC50 (cruzi)” value is 5.3. As for `CN1CCN(CCCN2c3ccccc3Sc3ccc(Cl)cc32)CC1` [Prochlorperazine], the EC50 is 6.31 µM in the assay on Vero cells (setting [2]) and 2.51 µM in assay [1] (setting [2]). `Clc1ccc2c(c1)CCc1cccnc1C2=C1CCNCC1` [Desloratadine]: the EC50 was 15.8 µM in the assay with Vero cells (72 h) and 6.31 µM in assay [1] (72 h). As to `CN(C)CCCN1c2ccccc2CCc2ccc(Cl)cc21` [Clomipramine], the EC50 is 15.8 µM in the assay with Vero cells (setting [2]) and 6.31 µM in assay [1] (setting [2]).
